Measurements reported in the RNAGym collection of RNA variant scans (doi:10.7554/elife.90254).
The source gives no read counts; variants with many changes may rest on few reads.

B1: LINE1-mini (parent)
chain: GGCAGAGCUCAACACAGCGUGGCAAAGUGGCUGUGGCUAGACUGCC

Variants of: B1
Test: self-cleavage, relative activity (ratio to wild type); higher = more cleavage; in vitro, sequencing; the parent is a self-cleaving ribozyme

Question: With GGCAGAUCUCAACACUGCGUGGCAAAGUGACUGUGGCUAGACUGCC [G7U A16U G30A] as the variant, how does the self-cleavage read?
Answer: 0.17

Question: With GGCAGAUCUCAACACGGCGUGACAAAGUGGCUGUGGCUAGAUUGCA [G7U A16G G22A C42U C46A] as the variant, how does the self-cleavage read?
Answer: 0.04

Question: For GGCAGAUCUCAACACAGCGUGGCAGAGUGGCUGUGGCUACACUGCC [G7U A25G G40C], which self-cleavage is on record?
Answer: 0.02

Question: With GGCAGAUCUCAACUCAGCGUGGAAAAGUGGCGCUGGCUAGGCUGCC [G7U A14U C23A U32G G33C A41G] as the variant, how does the self-cleavage read?
Answer: 0.09

Question: For GGCAGAUCUCAACACAGCGUGGCAAAGUGGGUGAGGUUAGACAGCC [G7U C31G U34A C37U U43A], which self-cleavage is on record?
Answer: 0.01

Question: With GGCAGAUCUCAACACAGCAUGGCAAAGUGGCUGUGGCUAGACUGAG [G7U G19A C45A C46G] as the variant, how does the self-cleavage read?
Answer: 0.05

Question: With GGCAGAUCUCAACACAGCGUGGCAAAGUGGAUGUGGCUAGAGUGCC [G7U C31A C42G] as the variant, how does the self-cleavage read?
Answer: 0.06

Question: For GGCAGAUUUCCACACAGCGUGGCAAACUGGCUGUGGCUAGACUGCU [G7U C8U A11C G27C C46U], which self-cleavage is on record?
Answer: 0.03

Question: For GGCAGAUCUCAAGACAGCUUGGCAAAGUGGCUGUGGCUAGACUGCC [G7U C13G G19U], which self-cleavage is on record?
Answer: 0.13

Question: Which self-cleavage does the source give for GGCAGAUCUCAACCCAUCGUGGCAAAAUGGCUGUGGCUUGACUGCC [G7U A14C G17U G27A A39U] here?
Answer: 0.25

Question: With GGCAGAUCUCAACAUAGCGUGGCCAAGUGGCUGUGGCUAGACUGCC [G7U C15U A24C] as the variant, how does the self-cleavage read?
Answer: 0.11

Question: With GGCAGAUCUGAACACAGCGUGGCACAGUGGCUGUGGCUAGACUGCC [G7U C10G A25C] as the variant, how does the self-cleavage read?
Answer: 0.02

Question: With GGCAGAUCUCAACACAGUGUGGCAAAGUGGCUGUGGCUAUACUGCC [G7U C18U G40U] as the variant, how does the self-cleavage read?
Answer: 0.04

Question: Which self-cleavage does the source give for GGCAGAUCUCAACACACCGUGGCAAAGUGGCUGUGGCUAGCCUGCC [G7U G17C A41C] here?
Answer: 0.06

Question: For GGCAGAUGUCAACGCAGCGUGGCAUAGUGGCUGUGGCUAGACUGCC [G7U C8G A14G A25U], which self-cleavage is on record?
Answer: 0.25

Question: Which self-cleavage does the source give for GGCAGAUCUCAAAACACCGUGGCAAAGUAGCUGUGGCUAGACUGCC [G7U C13A G17C G29A] here?
Answer: 0.05

Question: For GGCAGAUUUCAACACAGCGUGGCAAAGUGCCUGUGGCUAGACUGCC [G7U C8U G30C], which self-cleavage is on record?
Answer: 0.3

Question: For GGCAGAUCUCAACACUGCCUGGCAAAGCGGCUGUGGCUAGACUGCC [G7U A16U G19C U28C], which self-cleavage is on record?
Answer: 0.08

Question: For GGCAGAUCUAAACACAGCGUUGCCAAGUGGCUGUGGCUAGACUGCC [G7U C10A G21U A24C], which self-cleavage is on record?
Answer: 0.01

Question: Which self-cleavage does the source give for GGCAGAUCUUAACACAGCGUGGCAACGUGGCUGUGGCUAUACUGCC [G7U C10U A26C G40U] here?
Answer: 0.02

Question: Which self-cleavage does the source give for GGCAGAUCUCAACACAGCGUGGAAAAGUGGCUGAGGCUAGACUGCC [G7U C23A U34A] here?
Answer: 0.01

Question: For GGCAGAUAUCAACACAGCGUGGCAAAGUGGCUGUGGCUAGAUUGCC [G7U C8A C42U], which self-cleavage is on record?
Answer: 0.03

Question: With GGCAGAUCUCAACACAGAGCGAUAAAGUGGCUGUGGCUAGACUGCC [G7U C18A U20C G22A C23U] as the variant, how does the self-cleavage read?
Answer: 0.08

Question: With GGCAGAUCUCAACACAGGGUGGCGUAGUGGCUGUGGCUAGACUGCC [G7U C18G A24G A25U] as the variant, how does the self-cleavage read?
Answer: 0.06

Question: For GGCAGAUCUCAACACUGCGUGGCAAAGUUGCUGUGGCUAGAGUGCC [G7U A16U G29U C42G], which self-cleavage is on record?
Answer: 0.01

Question: Which self-cleavage does the source give for GGCAGAUCUCAACAUAGCGUGGCAAAGUUGCUGUGGCUAGACUGCC [G7U C15U G29U] here?
Answer: 0.04

Question: Which self-cleavage does the source give for GGCAGAUCUCAACAAAGCGUGGCAAAGUUGCUAAGGCUAGACUGCC [G7U C15A G29U G33A U34A] here?
Answer: 0.02

Question: For GGCAGAUCUCAACACAGCGUGGCACAGUGGCUGUGCCUCGGCUGCC [G7U A25C G36C A39C A41G], which self-cleavage is on record?
Answer: 0.08

Question: Which self-cleavage does the source give for GGCAGAUGUCAAUACAGCGUGGCAAAGUGGCUGCGGCUAGACUGCC [G7U C8G C13U U34C] here?
Answer: 0.08

Question: For GGCAGAUCUUCACACAGCGUGGCAAAGUGGCUGUGGCUAGACUGCC [G7U C10U A11C], which self-cleavage is on record?
Answer: 0.06

Question: For GGCAGAUCUCAAUUCAGCGUGGCAAAGUCGCUGUGGCUAGACUGCC [G7U C13U A14U G29C], which self-cleavage is on record?
Answer: 0.19

Question: With GGCAGAUCUAAACACAGCGUGGCAAACUGCCUGUGGCUAGACUGCC [G7U C10A G27C G30C] as the variant, how does the self-cleavage read?
Answer: 0

Question: With GGCAGAUCUCAACAUACCGUGGCAACGUGGCUGUGGCUAGUCUGCC [G7U C15U G17C A26C A41U] as the variant, how does the self-cleavage read?
Answer: 0.02

Question: Which self-cleavage does the source give for GGCAGAUCUCAAGACAGCGUGGCAAACUGGCUGUGGCUAGACUGCC [G7U C13G G27C] here?
Answer: 0.1

Question: With GGCAGAUCUCAGCACAGCGUGGCAAAGUGGCUGAGGCUAGACUGCU [G7U A12G U34A C46U] as the variant, how does the self-cleavage read?
Answer: 0.01

Question: With GGCAGAUCUCAACACAGCGUGGCAAUGUGGCUGUGGCGAGACUGCC [G7U A26U U38G] as the variant, how does the self-cleavage read?
Answer: 0

Question: Which self-cleavage does the source give for GGCAGAUCUGAACACAGCGUGGCAAAGUGGCAGUGGCUAGACUGCC [G7U C10G U32A] here?
Answer: 0.01

Question: For GGCAGAUCUCAAAACAGCUUCGCAAAGUGGCUGUGGCUAGACUGCC [G7U C13A G19U G21C], which self-cleavage is on record?
Answer: 0.02

Question: For GGCAGAUCUAAACACACCGUGGCAAAGUAGCUGUGGCUAGACUGCC [G7U C10A G17C G29A], which self-cleavage is on record?
Answer: 0.03

Question: With GGCAGAUGUCAACACAGCGUGGCAAAGCGGCUGUGCCUAGACUGCC [G7U C8G U28C G36C] as the variant, how does the self-cleavage read?
Answer: 0.2

Question: Which self-cleavage does the source give for GGCAGAUAUCAACACAGCGUGGCAAAGUGGCUGUGGCUAGCCCGAC [G7U C8A A41C U43C C45A] here?
Answer: 0.22

Question: Which self-cleavage does the source give for GGCAGAUCUAAACACAGCGAGGCAAAGUGGCUGUGGCUAGACUUCC [G7U C10A U20A G44U] here?
Answer: 0.02

Question: Which self-cleavage does the source give for GGCAGAUCUCAACACGGCGUGGCAAAGUGGUUGUGGCUAGACUGCC [G7U A16G C31U] here?
Answer: 0.03

Question: Which self-cleavage does the source give for GGCAGAUCUCAUCACAGCGUGGCAAAAUGGCUGUGGCUUGACCGCC [G7U A12U G27A A39U U43C] here?
Answer: 0.07

Question: Which self-cleavage does the source give for GGCAGAUCUCAACACGCGGUGCGAAAUUGGCUGUGGCUCAACUGCC [G7U A16G G17C C18G G22C C23G G27U A39C G40A] here?
Answer: 0.04

Question: For GGCAGAUCUCAACACAGGGUGGCAAAGUGGCUGUGGCUAUACUGCU [G7U C18G G40U C46U], which self-cleavage is on record?
Answer: 0.01

Question: Which self-cleavage does the source give for GGCAGAUCUCAACAUAGCGUGGCAGAGUGGCGGUGGCUAGACUUCA [G7U C15U A25G U32G G44U C46A] here?
Answer: 0.19

Question: Which self-cleavage does the source give for GGCAGAUCUCAAGACAGCGUGACAAAGUGGCUGUGGCUAGACUUCC [G7U C13G G22A G44U] here?
Answer: 0.29

Question: For GGCAGAUCUCAUCACAGCGUGGCAAAGUGGCAGUGGCUAGACUGCC [G7U A12U U32A], which self-cleavage is on record?
Answer: 0.03

Question: With GGCAGAUCUCAACACGGCGUGGCAAAGAGGCUGUGGGUAGACUGCC [G7U A16G U28A C37G] as the variant, how does the self-cleavage read?
Answer: 0.02

Question: For GGCAGAUCUCAACACAGCGUGGCAACGUGGGUGUGGCUAGACUGCC [G7U A26C C31G], which self-cleavage is on record?
Answer: 0.01

Question: Which self-cleavage does the source give for GGCAGAUCUCAACAGAGCGCGGCAAAGUGGCUGAGGCUAGACUGCC [G7U C15G U20C U34A] here?
Answer: 0.13

Question: Which self-cleavage does the source give for GGCAGAUAUCAACACAGCGUAGCAAAGUGGCCGUGGCUAGACUGCC [G7U C8A G21A U32C] here?
Answer: 0.15

Question: For GGCAGAUCUCAACACAGCGUGGCAAAGUGGGUGUGGCUAGACUGCG [G7U C31G C46G], which self-cleavage is on record?
Answer: 0.06

Question: With GGCAGAUCUCAAUACAGCGUGGCACAGUGGCUGUGGCUUGACUGCC [G7U C13U A25C A39U] as the variant, how does the self-cleavage read?
Answer: 0.09

Question: With GGCAGAUGUCAACGCAGGGUGGCAAAGUGGCUGUGGCUAGACUGCC [G7U C8G A14G C18G] as the variant, how does the self-cleavage read?
Answer: 0.01
